Laboratory results as given in PubChem BioAssay AID504832 (National Center for Advancing Translational Sciences (NCATS), 2011).
“And” between values parts separate entries of the source, which are not always exact repeats. Equal values may be shown once. The whole screen tested about 310,000 compounds, of which about 18,000 (5.8%) were called active. Inconclusive means that the source gave no clear call. Such entries were picked first, then a sample of the others. Calls come from the whole dose curve; as a rule, active = well fitted inhibition curve with a large enough effect; inconclusive = small, poorly fitted or top-dose-only effect, or another doubt; inactive = no such curve, though single readings can be large or run the other way. Potencies of inconclusive entries are left out as doubtful fits.

Assay: Primary qHTS for delayed death inhibitors of the malarial parasite plastid, 48 hour incubation
Settings: P. falciparum luciferase growth in erythrocytes; series mostly up to 28.7 µM; activity change, negative = inhibition: at the top concentration
Method in brief: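 Luminescence readout; reporter = integrated firefly luciferase in P. falciparum. RBC culture at 2% hematocrit, 0.1% parasitemia final, 37 C/5% CO2; decreased signal taken as growth inhibition.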
% is set by controls: 0 for no effect and ±100 for the full control effect; potency is the fitted concentration of half-maximal effect; tags give direction and shape of the fitted curve.

Question: With `COCCNc1cc(-c2ccccc2)nc2cc(-c3cccc(F)c3)nn12` as the compound, how does the Potency read?
Answer: inconclusive [inhibitor, single point]

Question: With `CCOC(=O)c1sc2nc(-c3ccco3)c3c(c2c1N)CC(C)(C)OC3` as the compound, how does the Potency read?
Answer: inconclusive [inhibitor, single point]

Question: With `COc1ccc(OCCCC(=O)Nc2cc(S(=O)(=O)N3CCCCC3)ccc2C)cc1` as the compound, how does the Potency read?
Answer: inconclusive [inhibitor, single point]

Question: With `CN(C)C(=O)CSc1ccccc1C(=O)OCC(=O)NC1CC1` as the compound, how does the Potency read?
Answer: inconclusive [inhibitor, single point]

Question: With `CN(C)C(CNC(C(=O)Nc1ccc(F)cc1)c1ccccc1)c1ccccc1` (configuration not stated) as the compound, how does the Potency read?
Answer: inconclusive [inhibitor, single point]

Question: Which Potency does the source give for `COc1ccccc1N1CCN(C2CCN(S(=O)(=O)c3ccc(C)cc3)CC2)CC1` here?
Answer: inconclusive [inhibitor, partial curve]

Question: Which Potency does the source give for `O=C(NN=C1CCCC1)c1[nH]c2ccc(Cl)cc2c1-c1ccccc1` here?
Answer: inconclusive [inhibitor, partial curve, poor fit]

Question: For `O=C(CSc1cn(CC(=O)N2CCCCC2)c2ccccc12)NCC1CCCO1` (configuration not stated), which Potency is on record?
Answer: inconclusive [inhibitor, full curve, poor fit]

Question: For `COc1ccccc1CC(=O)N1CCN(C(=O)c2ccco2)CC1`, which “activity change, negative = inhibition” value is on record?
Answer: inactive: 10%

Question: With `N#Cc1c(-c2ccc(Cl)cc2)ccnc1N1CCOCC1` as the compound, how does the Potency read?
Answer: inconclusive [inhibitor, partial curve, poor fit]

Question: For `CCCOc1cccc(C(=O)Nc2cccc(NC(=O)c3ccco3)c2)c1`, which Potency is on record?
Answer: inconclusive [inhibitor, single point]

Question: For `CC(=O)Nc1cccc(C(=O)OCC(=O)NCc2ccc(F)cc2)c1`, which Potency is on record?
Answer: active: 13.1 µM

Question: Which Potency does the source give for `CC(=O)NS(=O)(=O)c1ccc(NC(=S)NC(=O)c2ccco2)cc1` here?
Answer: inconclusive [inhibitor, single point]

Question: With `CCc1nc(SCC(=O)N2CCC(C)CC2)c2c(=O)n(C)c(=O)n(C)c2n1` as the compound, how does the Potency read?
Answer: inconclusive [inhibitor, single point]

Question: Which Potency does the source give for `Cc1nn(CCOc2cccc(Cl)c2)c(C)c1[N+](=O)[O-]` here?
Answer: inconclusive [inhibitor, partial curve]

Question: For `CCOc1cc(CNCC(C)C)c(Cl)cc1OCC(=O)Nc1ccccc1`, which Potency is on record?
Answer: inconclusive [inhibitor, single point]

Question: With `CCOc1cc(C2/C(=C(/O)c3ccc(OC(C)C)cc3)C(=O)C(=O)N2CCCOC)ccc1O` (configuration not stated) as the compound, how does the “activity change, negative = inhibition” value read?
Answer: inactive: 150%

Question: Which “activity change, negative = inhibition” value does the source give for `COc1ccccc1CNC(=O)COC(=O)C1CCN(c2ccc(C(F)(F)F)cn2)CC1` here?
Answer: inactive: 10.9%

Question: With `O=C(COc1cccc(F)c1)NNC(=O)Cc1ccc(S(=O)(=O)N2CCOCC2)s1` as the compound, how does the Potency read?
Answer: inconclusive [inhibitor, single point]

Question: With `O=C(c1ccc(OCCN2CCCCC2)cc1)c1c(-c2ccc(O)cc2)sc2cc(O)ccc12` as the compound, how does the Potency read?
Answer: active: 1.69 µM and active: 2.62 µM

Question: Which Potency does the source give for `CC(C)C1C(c2ccccc2)N(C)C(c2ccccc2)CC1(O)c1ccccc1` (configuration not stated) here?
Answer: inconclusive [inhibitor, full curve]

Question: Which Potency does the source give for `CCN1C(=NCc2cc(OC)c(OC)c(OC)c2)N[C@@H](c2cccc(C(F)(F)F)c2)C(C(=O)OC)=C1C` here?
Answer: inconclusive [inhibitor, full curve]

Question: With `COc1cc(S(=O)(=O)N2CCC(c3nc4ccccc4s3)CC2)ccc1S(=O)(=O)N1CC(C)CC(C)C1` (configuration not stated) as the compound, how does the Potency read?
Answer: inconclusive [inhibitor, partial curve, poor fit]

Question: Which Potency does the source give for `Cc1c(NC(=O)CSc2nc(-c3ccco3)cc(C(F)(F)F)n2)c(=O)n(-c2ccccc2)n1C` here?
Answer: inconclusive [inhibitor, partial curve, poor fit]

Question: For `Nc1c(N(Cc2ccccc2)C(=O)COc2cccc(Cl)c2)c(=O)[nH]c(=O)n1Cc1ccccc1`, which Potency is on record?
Answer: inconclusive [inhibitor, single point]

Question: For `O=C1c2ccccc2-c2n[nH]c3cccc1c23`, which “activity change, negative = inhibition” value is on record?
Answer: inactive: -4.42%

Question: For `CC(=O)Nc1ccc(SCCCC(=O)c2ccccc2)cc1`, which “activity change, negative = inhibition” value is on record?
Answer: inactive: 42.8%

Question: For `COC(=O)c1c(SCC(=O)Nc2ccc(C)c(C)c2)nc(=O)[nH]c1C`, which “activity change, negative = inhibition” value is on record?
Answer: inactive: 32.6%

Question: For `Cc1nn(C)c(C)c1C(C)NC(=O)c1cc(COc2cncc(Cl)c2)on1` (configuration not stated), which Potency is on record?
Answer: inconclusive [inhibitor, partial curve, poor fit]

Question: For `COc1ccc(Nc2nc3[nH]c(=O)cc(O)c3s2)cc1`, which Potency is on record?
Answer: inconclusive [inhibitor, single point]

Question: For `CC1=Nc2ccccc2N=C(NC(=O)CSC(=S)N2CCN(C)CC2)C1c1ccccc1` (configuration not stated), which Potency is on record?
Answer: inconclusive [inhibitor, partial curve, poor fit]

Question: Which “activity change, negative = inhibition” value does the source give for `CCCCNC(=S)Nc1ccc(-c2nc3ccc(C)cc3s2)cc1` here?
Answer: inactive: 171%

Question: With `CCN(CC)c1ccc(/C=N/NC(=O)c2cccc(S(=O)(=O)Nc3ccccc3OC)c2)cc1` as the compound, how does the Potency read?
Answer: inconclusive [inhibitor, partial curve, poor fit]

Question: With `CCOc1ccc2ccccc2c1CNCCc1ccc(S(N)(=O)=O)cc1` as the compound, how does the Potency read?
Answer: active: 11.7 µM

Question: Which “activity change, negative = inhibition” value does the source give for `CC(C)C(=O)Nc1nc(-c2ccc(S(=O)(=O)N3CCOCC3)cc2)cs1` here?
Answer: inactive: 0%

Question: For `O=C(NNC(=O)c1ccccc1Br)c1ccncc1`, which “activity change, negative = inhibition” value is on record?
Answer: inactive: 24.1%

Question: Which “activity change, negative = inhibition” value does the source give for `CN(N)c1nc(-c2ccccc2)cc(-c2ccccc2)n1` here?
Answer: inactive: -10.3%

Question: Which Potency does the source give for `O=C(Nc1ccnn1C1CCN(Cc2ccccc2)CC1)C1CCCC1` here?
Answer: inconclusive [inhibitor, single point]

Question: For `CC#CC(=O)N1CCC(CCc2ccccc2)(C(=O)OCC)CC1`, which Potency is on record?
Answer: inconclusive [inhibitor, partial curve, poor fit]

Question: Which Potency does the source give for `O=C(O)CCn1c(=O)sc2ccccc21` here?
Answer: inconclusive [inhibitor, full curve, poor fit]

Question: With `COc1cc(OC)c(OC)cc1CN1CCCC(C(=O)c2sccc2C)C1` (configuration not stated) as the compound, how does the Potency read?
Answer: inconclusive [inhibitor, partial curve, poor fit]

Question: With `CCCc1nc2oc3c(NCCN(C)C)ncnc3c2c2c1CCCC2` as the compound, how does the Potency read?
Answer: active: 13.1 µM
